{
  "source": "ChEMBL document CHEMBL4888484",
  "about": "“Replenishing the malaria drug discovery pipeline: Screening and hit evaluation of the MMV Hit Generation Library 1 (HGL1) against asexual blood stage Plasmodium falciparum ,using a nano luciferase reporter read-out” (2022)",
  "note": "Hit rate of the full screen: of about 150,000 compounds, about 540 (0.36%) showed an effect of 50% or more. This is one part of the list.",
  "data": [
    {"system": "Plasmodium falciparum", "test": "Primary screen in NF54 nanoGlo assay, in single point, at 2uM, 72h; a lower Z score goes with more inhibition", "format": "functional, Erythrocyte", "details": "timepoint 72 hour", "units": {"% Inhibition": "%"}, "values": [
      {"molecule": "CC(C)(NC(=O)C1CCc2cncn2C1)C(O)C(F)(F)F", "note": "(centres undefined)", "% Inhibition": -6, "Z score": 0.72},
      {"molecule": "O=C1CCc2cc(S(=O)(=O)N3CCC[C@H]3C(=O)NC3CCCCCCC3)ccc2N1", "% Inhibition": 5, "Z score": -0.58},
      {"molecule": "CC(=O)Nc1ccc(OC(=O)CCOc2ccc(F)cc2)cc1", "% Inhibition": -9, "Z score": 1.41},
      {"molecule": "OC1(CNc2nc3ccccc3s2)CCOCC1", "% Inhibition": -4, "Z score": 0.74},
      {"molecule": "O=C([C@@H]1CCCO1)N1CCCc2sccc2C1", "% Inhibition": -17, "Z score": 1.56},
      {"molecule": "COC(=O)CN1CCCN(c2nc3ccccc3o2)CC1", "% Inhibition": -18, "Z score": 2.32},
      {"molecule": "O=C(Cc1c[nH]c2ccccc12)N1CCN(c2cc(-n3cncn3)ncn2)CC1", "% Inhibition": -11, "Z score": 1.77},
      {"molecule": "CCn1c(CN2CCC[C@H](c3ccnn3C)C2)nc2c(F)cccc21", "% Inhibition": -11, "Z score": 2.25},
      {"molecule": "CCCOc1nc2ccccc2nc1N1CCC[C@H](C(=O)NCc2ccc(F)cc2)C1", "% Inhibition": -6, "Z score": 1.19},
      {"molecule": "Cc1ncn(CCC2CCOCC2)c1C", "% Inhibition": 1, "Z score": -0.11},
      {"molecule": "CC(=O)c1cccc(NC(=O)[C@H]2CC23CCOCC3)c1", "% Inhibition": 10, "Z score": -1.61},
      {"molecule": "Cc1ccc(Br)c(C(=O)N[C@@]2(CCO)CCOC2)n1", "% Inhibition": -1, "Z score": 0.25},
      {"molecule": "COc1ccc(OC)c(C2NC(c3cc(OC)ccc3OC)C(C)C(O)(c3ccc(F)cc3)C2C)c1", "note": "(centres undefined)", "% Inhibition": 9, "Z score": -1.19},
      {"molecule": "Nc1c2c(-c3ccc(F)cc3)nc(NCCN3CCCCC3)nc2nn1-c1ccc(Cl)cc1", "% Inhibition": -19, "Z score": 1.69},
      {"molecule": "O=C(CNc1cc(Cl)ccc1N1CCC(CO)CC1)N1CCOCC1", "% Inhibition": -9, "Z score": 1.65},
      {"molecule": "Cc1ccc2cc1Oc1cccc(c1)CO[C@H]1CCN(C(=O)CCc3nncn3C)C[C@H]1NC(=O)CN(C)C2=O", "% Inhibition": -16, "Z score": 2.04},
      {"molecule": "COc1cc(OC)cc(C(=O)N2CCCCC[C@H]2c2nnc(C)o2)c1", "% Inhibition": -6, "Z score": 1.14},
      {"molecule": "CCN(C[C@H](C)C#N)C(=O)CNc1ccc(-c2nccc(C)n2)cc1", "% Inhibition": -5, "Z score": 0.98},
      {"molecule": "CCn1cnc2c(N3CCC=C(c4cccnc4)C3)ncnc21", "% Inhibition": -7, "Z score": 0.74},
      {"molecule": "COc1ccc([C@@H](O)Cn2cnc(C(=O)NCCC3=CCCCC3)n2)cc1", "% Inhibition": 2, "Z score": -0.21},
      {"molecule": "O=C(NCC1CCC(O)C1)c1ccc(B(O)O)cc1", "note": "(centres undefined)", "% Inhibition": -15, "Z score": 1.91},
      {"molecule": "CC1CC(C)CN(C(=O)c2ccc3nnnn3c2)C1", "note": "(centres undefined)", "% Inhibition": -4, "Z score": 0.33},
      {"molecule": "CCn1cc(S(=O)(=O)N2CCCN(C)c3cc(F)ccc32)cn1", "% Inhibition": -8, "Z score": 1.27},
      {"molecule": "CN(C1(C(N)=O)CCCC1)S(=O)(=O)c1cccnc1", "% Inhibition": -2, "Z score": 0.31},
      {"molecule": "CC[C@H](C)N(CCO)S(=O)(=O)c1cc(C(=O)NC)n(C)c1", "% Inhibition": -13, "Z score": 1.11},
      {"molecule": "NC(=O)NCCC(=O)N(C1CCCCC1)C1CCCC1", "% Inhibition": -5, "Z score": 0.69},
      {"molecule": "O=C1CN(C(=O)[C@@H]2CC=CCC2)c2ccccc2N1", "% Inhibition": -15, "Z score": 2.79},
      {"molecule": "CC[C@H](NC(=O)c1c(C)c(C)c(C)[nH]c1=O)c1ncnn1C", "% Inhibition": 11, "Z score": -1.38},
      {"molecule": "COc1cc(NC(=O)Cc2ccc3nc(NC(C)=O)sc3c2)cc(OC)c1", "% Inhibition": -5, "Z score": 0.47},
      {"molecule": "Cc1ccccc1C(=O)N1[C@H](C(=O)NCC(C)C)COC12CCN(C(=O)C(C)(C)C)CC2", "% Inhibition": -1, "Z score": 0.11},
      {"molecule": "CN1C[C@@H](C(=O)NCC=Cc2ccccc2)CC1=O", "% Inhibition": -4, "Z score": 0.39},
      {"molecule": "CCN=C(NCc1ccccc1COC)NC[C@H](C)N1CCOCC1", "% Inhibition": 16, "Z score": -1.41},
      {"molecule": "CCc1nc(CN(C)Cc2cn(CCO)nc2C)no1", "% Inhibition": -4, "Z score": 0.52},
      {"molecule": "CN1CC[C@@]2(CCC1=O)CN(C(=O)Nc1cccc(C#N)c1)CCN2C", "% Inhibition": -16, "Z score": 2.14},
      {"molecule": "COC(=O)c1ccc(NCCOc2cccc3c2OC(C)(C)C3)nn1", "% Inhibition": -6, "Z score": 1.11},
      {"molecule": "Cn1cc(Oc2ccccc2C(=O)Nc2ccc3c(c2F)CCNC3=O)cn1", "% Inhibition": -11, "Z score": 1.84},
      {"molecule": "CC[C@@H](C(=O)n1nc(-c2ccccc2Cl)nc1N)c1ccccc1", "% Inhibition": -7, "Z score": 1.15},
      {"molecule": "O=C(C1CCCCC1)N(CCN1CCOCC1)c1nc2ccc(F)cc2s1", "% Inhibition": -16, "Z score": 1.99},
      {"molecule": "CN(c1ccn(C)n1)S(=O)(=O)CCCCS(=O)(=O)N1CCCC1", "% Inhibition": -3, "Z score": 0.4},
      {"molecule": "CCC(C)[C@H](N)C(=O)N(C)Cc1ccccc1", "note": "(some centres undefined)", "% Inhibition": 0, "Z score": 0.01},
      {"molecule": "CC(C)Oc1cnc(C(=O)NC[C@@H]2CC[C@H](C)N2C)cn1", "% Inhibition": -1, "Z score": 0.17},
      {"molecule": "Cc1cc(N2C(=O)CCS2(=O)=O)cc(C)c1S(=O)(=O)NCc1ccccn1", "% Inhibition": 34, "Z score": -0.85}
    ]}
  ]
}
